{
  "source": "PubChem BioAssay AID1508624",
  "about": "(National Center for Advancing Translational Sciences (NCATS), 2021)",
  "note": "Hit rate of the full screen: of about 48,000 compounds, about 120 (0.25%) were called active. Roughly 4% stayed inconclusive and do not appear here. Calls come from the whole dose curve; as a rule, active = well fitted activation curve with a large enough effect; inconclusive = small, poorly fitted or top-dose-only effect, or another doubt; inactive = no such curve, though single readings can be large or run the other way. Some of the results follow. Potency is the fitted concentration of half-maximal effect.",
  "data": [
    {"assay": "Primary qHTS for Identification of Small Molecule Activators of Huntingtin-Antisense Promoter Activity; note: nearly all actives have a fitted effect of over 55% in size", "conditions": "HEK293 HTT-AS promoter firefly luciferase reporter (activity 0% = vehicle and -100% = no light), 24 h; series mostly up to 57.5 µM; activity change, positive = activation: at the top concentration", "summary_of_the_method": "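HEK293 cells carrying firefly luciferase reporters were seeded at 2,500 per well in Opti-MEM and cultured for 24 h. They were then treated with compounds at up to 57.5 uM final for 24 h at 37 degrees C before Dual-Glo luminescence readout.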", "values": [
      {"smiles": "Cc1ccc(C(=O)CSc2nc(-c3ccccc3)nc3c2CCCC3)cc1C", "activity change, positive = activation": "inactive: -10.1%"},
      {"smiles": "CC1=C(C(=O)Nc2ccc(C)cc2C)C(c2cccs2)n2nc(SCc3ccc(Cl)cc3)nc2N1", "note": "(centres undefined)", "activity change, positive = activation": "inactive: 0.185%"},
      {"smiles": "COc1ccc(-c2csc3ncnc(Nc4cccc(F)c4)c23)cc1", "activity change, positive = activation": "inactive: -2.53%"},
      {"smiles": "CC(=O)c1ccc(NC(=O)CC2Sc3ccccc3NC2=O)cc1", "note": "(centres undefined)", "activity change, positive = activation": "inactive: -23.1%"},
      {"smiles": "Cc1cc(Oc2nc3ccccn3c(=O)c2/C=C(\\C#N)c2nc3ccccc3s2)ccc1Cl", "activity change, positive = activation": "inactive: -2.69%"},
      {"smiles": "Cc1nc2nc(NC(=O)C(C)C)[nH]n2c(=O)c1Cc1ccccc1", "activity change, positive = activation": "inactive: -13.2%"},
      {"smiles": "Cc1ccc(NC(=O)C2CCN(C(=O)c3cnn(-c4ccccc4)c3-n3cccc3)CC2)cc1Cl", "activity change, positive = activation": "inactive: -44.4%"},
      {"smiles": "Cc1ccc(Nc2nc(C(N)=O)c(NC(=O)c3ccccc3Br)s2)cc1", "activity change, positive = activation": "inactive: 2.57%"},
      {"smiles": "Cc1ccc2c(c1)c1c(c(=O)n(-c3ccccc3C)c(=O)n1Cc1cccc(F)c1)n2C", "activity change, positive = activation": "inactive: -29.5%"},
      {"smiles": "Cc1ccc(Cl)cc1NC(=O)C(NS(=O)(=O)c1ccc2c(c1)CCC(=O)N2)c1ccccc1", "note": "(centres undefined)", "activity change, positive = activation": "inactive: -21.3%"},
      {"smiles": "CCc1ccc(NCc2cc3cc(OC)c(OC)cc3n(CC(=O)Nc3ccc(F)cc3)c2=O)cc1", "activity change, positive = activation": "inactive: -5.62%"},
      {"smiles": "Cc1cccc(NC(=O)CC2C(=O)OCCN2Cc2ccccc2)c1", "note": "(centres undefined)", "activity change, positive = activation": "inactive: -22.9%"},
      {"smiles": "CC1=C(c2ccc(F)cc2)S(=O)(=O)NC1=NCc1ccccc1Cl", "activity change, positive = activation": "inactive: -20.9%"},
      {"smiles": "COc1cccc(CNC(=O)CCn2c(=O)c3cccn3c3cccnc32)c1", "activity change, positive = activation": "inactive: -6.32%"},
      {"smiles": "Cc1ccccc1C(=O)NC(=O)Nc1ccc(-n2nc(C(F)(F)F)cc2C(F)(F)F)cc1", "activity change, positive = activation": "inactive: -9.18%"},
      {"smiles": "COc1ccc2cc(CNc3ccccc3)c(=O)n(CC(=O)Nc3ccc(C(C)=O)cc3)c2c1", "activity change, positive = activation": "inactive: -22.9%"},
      {"smiles": "CCC(=O)N1CCc2cc(S(=O)(=O)NC(Cc3ccccc3)C(=O)NCc3cccc(OC)c3)ccc21", "note": "(centres undefined)", "activity change, positive = activation": "inactive: -2.57%"},
      {"smiles": "Cc1ccc2c(CC(=O)Nc3c(C(=O)c4ccc(F)cc4)oc4ccccc34)coc2c1C", "activity change, positive = activation": "inactive: -2.75%"},
      {"smiles": "CC(C)c1ccc(NC(=O)C(Cc2ccccc2)n2cccc2)cc1", "note": "(centres undefined)", "activity change, positive = activation": "inactive: -26.3%"},
      {"smiles": "Cc1ccc(C)c(S(=O)(=O)c2cn(Cc3ccccc3)c3cc(N4CCCC4)c(F)cc3c2=O)c1", "activity change, positive = activation": "inactive: -21.5%"},
      {"smiles": "CCOc1ccc(NC(=O)Cn2c(=O)n(CC(=O)NCCc3ccccc3)c(=O)c3sccc32)cc1", "activity change, positive = activation": "inactive: -11.1%"},
      {"smiles": "Cc1ccc(-n2ccn(CC(=O)c3ccc(F)cc3)c(=O)c2=O)cc1C", "activity change, positive = activation": "inactive: 4.89%"},
      {"smiles": "CC(=O)N1CCCc2cc(S(=O)(=O)Nc3ccc(OC(F)(F)F)cc3)ccc21", "activity change, positive = activation": "inactive: -20.9%"},
      {"smiles": "Cc1cccc(C)c1NC(=O)c1cc(S(=O)(=O)N2CCCc3ccccc32)ccc1F", "activity change, positive = activation": "inactive: -37.3%"},
      {"smiles": "COc1cccc(C(=O)NCCc2sc(-c3cccc(C)c3)nc2C)c1", "activity change, positive = activation": "inactive: -1.87%"},
      {"smiles": "Cc1ccc(-n2[nH]c(C)c(N=Nc3cccc(-c4cccc(C(=O)O)c4)c3O)c2=O)cc1C", "activity change, positive = activation": "inactive: -33.2%"},
      {"smiles": "COc1cccc(NC(=O)c2oc3ccccc3c2NC(=O)c2ccc(OC(C)C)cc2)c1", "activity change, positive = activation": "inactive: 27.3%"},
      {"smiles": "CCOC(=O)c1ccc(N2C(=O)c3[nH]nc(-c4ccccc4)c3C2c2ccc(C(C)C)cc2)cc1", "note": "(centres undefined)", "activity change, positive = activation": "inactive: -58.4%"},
      {"smiles": "COc1ccc2c(CNCCc3ccco3)c(C(=O)O)n(Cc3ccc(F)cc3)c2c1", "activity change, positive = activation": "inactive: -18.6%"},
      {"smiles": "CCn1cc(C(=O)NCc2ccc(Cl)cc2)c(=O)c2cc(S(=O)(=O)N3CCc4ccccc4C3)ccc21", "activity change, positive = activation": "inactive: -3.16%"},
      {"smiles": "CC(=O)Nc1nonc1-c1nnc(SCC(=O)Nc2c(C)cccc2C)n1-c1ccccc1", "activity change, positive = activation": "inactive: -11.9%"},
      {"smiles": "COc1cc(Cl)c(C)cc1NC(=O)CCn1cnc2onc(-c3ccc(F)cc3)c2c1=O", "activity change, positive = activation": "inactive: -24.1%"},
      {"smiles": "CC(CNC(=O)Cn1c(-c2cccs2)cc2cc(Cl)ccc21)c1ccccc1", "note": "(centres undefined)", "activity change, positive = activation": "inactive: -19.8%"},
      {"smiles": "COCC(C)NS(=O)(=O)c1ccc(N2CCCCS2(=O)=O)cc1", "note": "(centres undefined)", "activity change, positive = activation": "inactive: -14.5%"},
      {"smiles": "CCOC(=O)c1ccc(NC(=O)c2sc3nc4n(c(=O)c3c2C)CCC4)cc1", "activity change, positive = activation": "inactive: -19.3%"},
      {"smiles": "CCN1C(C(=O)c2ccccc2)=C(NC(=O)c2ccc(Cl)cc2)c2ccccc2S1(=O)=O", "activity change, positive = activation": "inactive: -26%"},
      {"smiles": "COc1cc(OC)cc(-c2ccc3ncc4ccc(=O)n(-c5ccc(N6CCNCC6)c(C(F)(F)F)c5)c4c3c2)c1", "activity change, positive = activation": "inactive: -33.7%"},
      {"smiles": "O=C(O)C(=O)Nc1cccc(C2=NN=N[N]2)c1", "activity change, positive = activation": "inactive: -11.9%"},
      {"smiles": "CC(C)CNC(=O)C(=O)Nc1c2c(nn1-c1ccc(Cl)cc1)CSC2", "activity change, positive = activation": "inactive: -20.6%"},
      {"smiles": "CC(=O)c1ccc(NC(=O)CSc2nccn2C2CCCC2)cc1", "activity change, positive = activation": "inactive: 9.17%"},
      {"smiles": "Cc1cccc(N2CCN(c3ccc4cc(S(=O)(=O)N5CCC(C)CC5)ccc4n3)CC2C)c1", "note": "(centres undefined)", "activity change, positive = activation": "inactive: -19.4%"},
      {"smiles": "CCOc1ccc(NC(=O)CSc2nc3ccccc3nc2N2CCOCC2)cc1", "activity change, positive = activation": "inactive: 0%"},
      {"smiles": "COc1ccc(CNC(=O)c2cc3cccc4c3n2CC(C)S4)cc1", "note": "(centres undefined)", "activity change, positive = activation": "inactive: -15.8%"},
      {"smiles": "O=c1c(N2CCN(c3ccc(F)cc3)CC2)csc2ccc(F)cc12", "activity change, positive = activation": "inactive: 2.97%"},
      {"smiles": "COc1ccc(S(=O)(=O)NC(C)(C)CO)cc1-c1nnc2c3ccccc3c(C)nn12", "activity change, positive = activation": "inactive: -4.56%"},
      {"smiles": "CC(C)CC(=O)Nc1cccc(-c2cn3cccnc3n2)c1", "Potency": "active: 15.8 µM"},
      {"smiles": "CCCn1c(=O)c2sccc2n2c(CCCC(=O)N3CCN(c4ccc(OC)cc4)CC3)nnc12", "activity change, positive = activation": "inactive: -23.2%"},
      {"smiles": "CC1CCN(S(=O)(=O)c2ccc3nc(Nc4cccc(F)c4)ccc3c2)CC1", "activity change, positive = activation": "inactive: -47.5%"},
      {"smiles": "C[C@@H]1C(=O)O[C@H]2CC34[C@H]5C[C@@H](C(C)(C)C)C36[C@H](OC(=O)[C@@H]6O)O[C@@]4(C(=O)O5)[C@]21O", "note": "(some centres undefined)", "activity change, positive = activation": "inactive: -7.09%"},
      {"smiles": "Cc1nn(-c2cccc(Cl)c2)c2nc(-c3cccnc3)cc(C(F)(F)F)c12", "activity change, positive = activation": "inactive: -4.68%"},
      {"smiles": "COc1ccc(C)cc1NC1(c2ccccc2)C(=O)c2ccccc2C1=O", "activity change, positive = activation": "inactive: -7.15%"},
      {"smiles": "COc1ccc(OC)c(N(C)S(=O)(=O)c2ccc3c(c2)NC(=O)CC(=O)N3)c1", "activity change, positive = activation": "inactive: -6.49%"},
      {"smiles": "COc1ccc2nc(N3CCN(C(=O)CS(=O)(=O)c4ccc(C)cc4)CC3)sc2c1", "activity change, positive = activation": "inactive: -7.41%"},
      {"smiles": "CN(C)c1ccc(NC(=O)CC(NCc2cccnc2)C(=O)O)cc1", "note": "(centres undefined)", "activity change, positive = activation": "inactive: 0.167%"},
      {"smiles": "Cc1ccccc1NC(=O)c1sc2nc3n(c(=O)c2c1C)N=C(c1ccccc1)CS3", "activity change, positive = activation": "inactive: -1.69%"},
      {"smiles": "COc1cccc(CNc2sc3c(c2C(=O)Nc2ccc(OC)cc2OC)CCC3)c1", "activity change, positive = activation": "inactive: -8.12%"},
      {"smiles": "Cc1ccc(NC(=O)CCCn2c(=O)c3cccn3c3cccnc32)c(C)c1", "activity change, positive = activation": "inactive: -16.2%"},
      {"smiles": "CCC(Sc1nc2nccnc2c(=O)n1Cc1ccc(Cl)cc1)C(=O)NC1CCCCC1", "note": "(centres undefined)", "activity change, positive = activation": "inactive: -20.5%"},
      {"smiles": "O=c1c(-c2cc(-c3ccccc3)nc3c2COc2ccc(Cl)cc2-3)coc2ccccc12", "activity change, positive = activation": "inactive: -4.25%"}
    ]}
  ]
}
